Results as given in PubChem BioAssay AID463173 (ICCB-Longwood Screening Facility, Harvard Medical School, 2010).
The whole screen tested about 52,000 compounds, of which about 4,300 (8.3%) were called active. Cut-off read from the data, not from the text of the source: active = survival mostly below about 52% (no sharp cut-off); inactive = mostly above about 56%. Some of the results follow.

Test system: DeltatarO mutant
Assay: growth inhibition of S. aureus wild type versus tarO mutant, primary screen, teichoic acid synthesis inhibitors, RN4220, OD600 (AID 463173)
Details: OD600, 18 h, hits give low values, screened at 18.75 µg/mL (by protocol)

Structure (SMILES)	survival
Cc1ccc(N(Cc2cccs2)C(=O)c2ccc(OC(C)C)cc2)cc1	inactive: 95%
CCOc1ccccc1C(=O)NCc1ccc2c(c1)CCN2C(=O)c1ccc(F)cc1	inactive: 78%
Cc1cccc(CNC(=O)C2CCN(c3nn4cc(-c5ccc(F)cc5)nc4s3)CC2)c1	active: 47%
COc1ccc(-n2ncc(C(=O)NCc3cccs3)c2C2CCN(C(=O)OC(C)(C)C)CC2)cc1	inactive: 89%
CCc1ccccc1N(CC)C(=O)c1cc2c(s1)-c1ccccc1SC2	active: -1%
O=C(Cc1ccc(Cl)cc1)NC1CC(=O)N(c2ccc3c(c2)OCCO3)C1 (stereo not given)	inactive: 85%
Cc1cc(C)cc(NC(=O)NCc2noc3ccccc23)c1	inactive: 52%
CCOc1ccccc1C(=O)Nc1cccc(-c2nc3ccccc3s2)c1	active: 41%
CC1=C(C#N)c2nc(N)c(C#N)c(C)c2/C1=C\C=C\c1ccccc1	inactive: 112%
COc1ccccc1/C=C/c1nc(C#N)c(NCc2ccccc2)o1	inactive: 83%
COc1ccc(-c2cn3c(n2)sc2cc(C(=O)NCCc4ccccc4)ccc23)cc1	inactive: 86%
O=C(OCc1cc(=O)n2nc(C3CC3)sc2n1)c1cccc(NC(=O)c2ccccc2Cl)c1	inactive: 90%
Cc1ccc(C)c(NC(=O)c2cnc(N3CCCC3)nc2C)c1	inactive: 94%
CC(Nc1oc(-c2ccc(COc3ccccc3)o2)nc1C#N)c1ccccc1 (stereo not given)	inactive: 54%
Cc1cccc(-n2ncc3c(NCCOCCO)ncnc32)c1	inactive: 71%
O=C(CSc1nc2ccccc2c(=O)n1Cc1ccco1)Nc1ccccc1	inactive: 84%
O=C(CSc1nc2c([nH]c3ccccc32)c(=O)n1-c1ccccc1F)Nc1cccc(Cl)c1	inactive: 74%
CCC(=O)N1CCc2cc(S(=O)(=O)CCC(=O)Nc3cc(Cl)ccc3OC)ccc21	inactive: 80%
COc1cccc(N2CC(NC(=O)/C=C\c3ccccc3)CC2=O)c1 (stereo not given)	inactive: 98%
CCOc1ccc(-c2cn3c(n2)sc2cc(C(=O)NC(C)C45CC6CC(CC(C6)C4)C5)ccc23)cc1 (stereo not given)	inactive: 115%
Cc1cc(C)nc(Oc2ccc(Br)cc2Br)n1	inactive: 102%
CCOc1ccc(C(c2c(O)cc(C)n(Cc3ccco3)c2=O)N2CCN(C)CC2)cc1 (stereo not given)	inactive: 69%
CC1CCN(C(=O)Cn2cc(SCC(=O)NCc3ccccc3)c3ccccc32)CC1	inactive: 63%

Structure (SMILES)	survival
CCc1nnc(NC(=O)c2nc(SCc3cccc(C)c3)ncc2Cl)s1	active: 5%
O=S(=O)(c1ccccc1)n1nc(-c2ccco2)nc1NCc1ccccc1	inactive: 71%
CCC(Sc1nnc(-c2ccc(F)cc2)c(-c2ccc(F)cc2)n1)C(=O)NC1CCCC1 (stereo not given)	inactive: 75%
N#C/C(=C\Nc1cccc(C(F)(F)F)c1)C(=O)N1CCOCC1	inactive: 98%
Cn1nnc2cc(C(=O)N3CCCCCC3)ccc21	inactive: 74%
CCCOc1ccc(C2C(=O)N(C3CCCCC3)CC(=O)N2C2CCCCC2)cc1OC (stereo not given)	inactive: 91%
O=C(COCc1cc(-c2ccc(F)cc2)on1)Nc1cccc(C(F)(F)F)c1	inactive: 72%
COc1ccc(Cn2c(CO)cnc2SCc2ccccc2)cc1	inactive: 89%
Cc1ccc(-n2c(=O)c3c(C)c(C(=O)N(C)C)sc3n(Cc3ccccc3C)c2=O)cc1C	inactive: 98%
Cc1cccc(Nc2nc(-c3ccccc3)nc3ccccc23)c1	active: 1%
O=C(c1cc2sccc2n1Cc1ccccc1)N1CCCC1	inactive: 78%
Cc1cccc(Cn2c(CN3CCC(C(=O)NC(C)C)CC3)cc3ccccc32)c1	inactive: 74%
COc1ccc(CNC(=O)C2CCN(S(=O)(=O)c3cccc(-c4noc(C)n4)c3)CC2)cc1	inactive: 92%
CCOc1ccc(CNC(=O)c2cc3c(=O)oc4ccc(C)cc4c3s2)cc1	inactive: 72%
COc1ccc(C2C(C(=O)Nc3ccccc3)=C(C)Nc3nc(-c4ccc(Cl)cc4)nn32)cc1 (stereo not given)	inactive: 98%
Cc1ccccc1CNCCCSc1nnnn1C	inactive: 76%
Cc1ccc(NC(=O)CSCc2cc(=O)c3ccccc3[nH]2)c(C)c1	inactive: 116%
CCOC(=O)NNC(=O)C1CCC(C)CC1 (stereo not given)	inactive: 55%
CC(C)Oc1ccc(CNC(=O)c2cnc3sc(N4CCCC4)nn3c2=O)cc1	inactive: 94%
Cc1oc2c(c1C(=O)NCc1ccccc1F)C1=NCCN1C=N2	inactive: 89%
O=C(NCC(c1ccc2c(c1)OCO2)N1CCN(c2ccccc2)CC1)C(=O)Nc1ccccc1F (stereo not given)	inactive: 82%
Cc1cccc2c(=O)c(N)c[nH]c12	inactive: 105%
O=S(=O)(NCCCO)c1ccc2c(c1)Cc1cc(S(=O)(=O)NCCCO)ccc1-2	inactive: 71%

Structure (SMILES)	survival
COC(=O)c1cc2c(=O)n3ccccc3nc2n(CCN2CCOCC2)c1=N	inactive: 87%
CCOc1ccc(NC(=O)CC2C(=O)N(c3ccc(OC)cc3)C(=O)N2CCC2=CCCCC2)cc1 (stereo not given)	inactive: 71%
CCN(CC)C(=O)Cn1ncc2c([nH]c3ccccc32)c1=O	inactive: 118%
COc1cccc(N2CCN(C(=O)c3ccc4nc(N5CCC(C)CC5)sc4c3)CC2)c1	inactive: 62%
CCN1C(=O)C2C(c3ccc(F)cc3)NC(CCSC)(C(=O)OC)C2C1=O (stereo not given)	inactive: 54%
CCOC(=O)c1cnc2ccc(C(=O)OC)cc2c1Nc1ccc(OCc2ccccc2Cl)cc1	inactive: 151%
CC(=O)Nc1cccc(-c2nnc(SCC(=O)c3cc([N+](=O)[O-])ccc3Cl)o2)c1	inactive: 74%
COc1ccccc1-c1nn(CCC(=O)Nc2ccc(C)cc2)c2nc(C)cc(C)c12	inactive: 53%
CCN1CCN(CCCNC(=O)Cn2nc(C)n3c(cc4c(OC)cccc43)c2=O)CC1	inactive: 103%
Cc1ccccc1NC(=O)CSc1ccc(-c2ccccn2)nn1	inactive: 112%
CC1=C(C(N)=O)C(c2ccc(C)cc2)n2nc(SCc3ccccc3)nc2N1 (stereo not given)	inactive: 112%
O=C(NCc1ccccc1Cl)C1=Cc2cc(Br)ccc2OC1	inactive: 112%
Cc1cc(C)cc(NC(=O)C(=O)NCCc2sc(-c3cccc(F)c3)nc2C)c1	inactive: 80%
O=C(CSc1nc2ccccc2c(=O)n1C1CCCCC1)NCc1ccco1	inactive: 100%
CC(=O)Nc1ccc(NC(=O)c2ccc3c(c2)CCN3S(=O)(=O)c2ccc(C)cc2)cc1	inactive: 62%
COc1ccc(C)cc1NC(=O)N(C(C)C)C1CCN(C(C)=O)CC1	inactive: 75%
O=C(O)c1cc(-c2ccccc2)nn1Cc1ccccc1	inactive: 73%
COc1ccc(C(C)=O)cc1CSc1nc(Nc2ccc(F)c(F)c2)c2ccccc2n1	active: 25%
Cc1ccc(-c2nnc3ccccc3c2C(=O)Nc2ccc(F)cc2)cc1	inactive: 100%
COc1ccccc1Nc1nn2c(=O)c3ccc(C(=O)NCCc4ccccc4)cc3nc2s1	inactive: 78%
Cc1ccc(-n2c(=O)c3c(cnn3C)n(CC(=O)Nc3cccc(Cl)c3)c2=O)cc1	active: 55%
CCC(C(=O)NCCc1ccc(OC)c(OC)c1OC)n1nc(C)c2sc3ccccc3c2c1=O (stereo not given)	inactive: 103%
CCc1ccccc1NC(=O)CCn1cccn1	inactive: 135%

Structure (SMILES)	survival
Cc1ccc(CSc2nc3ccccc3c3nc(CCn4c(C)nc5ccccc54)nn23)cc1	inactive: 90%
O=C(Nc1cccc2ccccc12)OCCn1nnnc1CN1CCOCC1	inactive: 97%
Cc1cc(C)cc(NC(=O)C(C)N2Cc3ccccc3C2=O)c1 (stereo not given)	inactive: 91%
Cc1ccc(C)c(N2CCN(CCCNC(=O)c3cnn(-c4cccc(Cl)c4)c3C3CCN(C(=O)OC(C)(C)C)CC3)CC2)c1	active: 52%
CCOc1ccc(NC(=O)c2ccc3c(=O)n4c(nc3c2)CCCCC4)cc1	inactive: 139%
O=C(CSc1n[nH]c(-c2ccccc2)n1)N1CCN(c2ccc(F)cc2)CC1	inactive: 65%
Cc1noc(Cn2c(=O)c3ccccc3n(CC(=O)Nc3cc(Cl)ccc3C)c2=O)n1	inactive: 94%
CCOC(=O)c1[nH]c2ccccc2c1NC(=O)c1ccc(C)c(C)c1	inactive: 65%
O=C(CCn1cnc2onc(-c3ccc(F)cc3)c2c1=O)Nc1cccc(C(F)(F)F)c1	inactive: 96%
Cc1ccc(-c2nnc(Nc3ccc(OCC(N)=O)cc3)c3ccccc23)cc1S(=O)(=O)NCC1CCCO1 (stereo not given)	inactive: 149%
CCc1ccccc1NC(=O)Cn1c(=O)n(C(C)C)c(=O)c2oc3ccccc3c21	inactive: 66%
CCOc1ccccc1NC(=O)Cn1c(=O)nc(-c2ccccc2F)c2cc(Cl)ccc21	inactive: 84%
COc1ccccc1NC(=O)c1cc2c(-c3ccccc3)nn(-c3ccccc3)c2s1	inactive: 89%
COc1ccc(OCc2nc3ccccc3n2Cc2ccc(C(C)(C)C)cc2)cc1	active: -9%
CCN(CC)C(=O)Cn1c(SCC(=O)Nc2ccc(F)cc2)nc2ccccc21	inactive: 100%
COc1cccc(NC(=O)C(C)n2c(=O)cc(C(F)(F)F)c3c(C)nn(C)c32)c1 (stereo not given)	inactive: 83%
O=C(NCc1cccc(Br)c1)C1CCCCN1S(=O)(=O)c1ccc(F)cc1 (stereo not given)	inactive: 89%
CCCNC(=O)CN1C(=O)COc2ccc(S(=O)(=O)N3CCCCCC3)cc21	inactive: 80%
CC1CCN(S(=O)(=O)c2ccc3c(c2)N(C)C(=O)CC(=O)N3C)CC1	inactive: 60%
CCc1ccc(CNC(=O)CN2C(=O)C3CCCCN3c3ccc(C(=O)N4CCCC4)cc32)cc1 (stereo not given)	inactive: 75%
CC(C)Oc1ccc(CNC(=O)C(C)n2ccc3cc(S(=O)(=O)N4CCCCCC4)ccc32)cc1 (stereo not given)	inactive: 95%
